# Test results taken from the supplement of paper PMC8728848.
# The other results are listed elsewhere or left out.
# Legend:
# Test in all cases: glycan array binding signal (z-score within array); higher = stronger binding
# Settings in all cases: glycan notation: IUPAC condensed, linker removed
# [1] = target: GalNAc3S(b1-4)[Fuc(a1-3)]GlcNAc
# Procedure, shortened: (§1)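 Negative Z-scores can be read as non-binding. The Z-score is calculated within each array and then averaged across arrays of one protein sequence at different concentrations or buffers and across linkers. Arrays, 3228 in all, were curated from the Consortium for Functional Glycomics database and kept only where the protein sequence was available.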
# [2] = target: GalNAc4S6S(b1-4)GlcNAc
# Procedure, shortened: as §1
# [3] = target: GalNAc6S(b1-4)GlcNAc
# Procedure, shortened: as §1
# [4] = target: Glc(a1-4)Glc
# Procedure, shortened: as §1
# [5] = target: Glc(a1-4)Glc(a1-4)Glc(a1-4)Glc
# Procedure, shortened: as §1
# [6] = target: Glc(a1-6)Glc(a1-6)Glc
# Procedure, shortened: as §1
# [7] = target: Glc(a1-6)Glc(a1-6)Glc(a1-6)Glc
# Procedure, shortened: as §1
# [8] = target: Glc(b1-4)Glc
# Procedure, shortened: as §1
# [9] = target: Glc(b1-6)Glc
# Procedure, shortened: as §1
# [10] = target: GlcA(b1-3)Gal
# Procedure, shortened: as §1
# [11] = target: GlcA(b1-3)GlcNAc
# Procedure, shortened: as §1
# [12] = target: GlcA(b1-6)Gal
# Procedure, shortened: as §1
# [13] = target: GlcA3S(b1-3)Gal(b1-4)GlcNAc(b1-2)Man
# Procedure, shortened: as §1
# [14] = target: GlcA3S(b1-3)Gal(b1-4)GlcNAc(b1-3)Gal(b1-4)Glc
# Procedure, shortened: as §1
# [15] = target: GlcNAc(a1-3)Gal(b1-4)GlcNAc
# Procedure, shortened: as §1
# [16] = target: GlcNAc(a1-4)Gal(b1-3)GlcNAc
# Procedure, shortened: as §1
# [17] = target: GlcNAc(a1-4)Gal(b1-4)GalNAc
# Procedure, shortened: as §1
# [18] = target: GlcNAc(a1-4)Gal(b1-4)GlcNAc
# Procedure, shortened: as §1
# [19] = target: GlcNAc(a1-4)Gal(b1-4)GlcNAc(b1-3)Gal(b1-4)Glc
# Procedure, shortened: as §1
# [20] = target: GlcNAc(a1-4)Gal(b1-4)GlcNAc(b1-3)Gal(b1-4)GlcNAc
# Procedure, shortened: as §1
# [21] = target: GlcNAc(a1-4)Gal(b1-4)GlcNAc(b1-3)Gal(b1-4)GlcNAc(b1-3)Gal(b1-4)GlcNAc
# Procedure, shortened: as §1
# [22] = target: GlcNAc(a1-4)Gal(b1-4)GlcNAc(b1-3)Gal(b1-4)[Fuc(a1-3)]GlcNAc(b1-3)Gal(b1-4)[Fuc(a1-3)]GlcNAc
# Procedure, shortened: as §1
# [23] = target: GlcNAc(a1-6)Gal(b1-4)GlcNAc
# Procedure, shortened: as §1
# [24] = target: GlcNAc(b1-2)Gal(b1-3)GalNAc
# Procedure, shortened: as §1
# [25] = target: GlcNAc(b1-2)Man(a1-3)[GlcNAc(b1-2)Man(a1-6)]Man(b1-4)GlcNAc(b1-4)GlcNAc
# Procedure, shortened: as §1
# [26] = target: GlcNAc(b1-2)Man(a1-3)[GlcNAc(b1-2)Man(a1-6)]Man(b1-4)GlcNAc(b1-4)[Fuc(a1-6)]GlcNAc
# Procedure, shortened: as §1
# [27] = target: GlcNAc(b1-2)Man(a1-3)[GlcNAc(b1-4)][GlcNAc(b1-2)Man(a1-6)]Man(b1-4)GlcNAc(b1-4)GlcNAc
# Procedure, shortened: as §1
# [28] = target: GlcNAc(b1-2)Man(a1-3)[GlcNAc(b1-4)][GlcNAc(b1-2)Man(a1-6)]Man(b1-4)GlcNAc(b1-4)[Fuc(a1-6)]GlcNAc
# Procedure, shortened: as §1
# [29] = target: GlcNAc(b1-2)[GlcNAc(b1-4)]Man(a1-3)[GlcNAc(b1-2)Man(a1-6)]Man(b1-4)GlcNAc(b1-4)GlcNAc
# Procedure, shortened: as §1
# [30] = target: GlcNAc(b1-2)[GlcNAc(b1-4)]Man(a1-3)[GlcNAc(b1-4)][GlcNAc(b1-2)Man(a1-6)]Man(b1-4)GlcNAc(b1-4)GlcNAc
# Procedure, shortened: as §1
# [31] = target: GlcNAc(b1-2)[GlcNAc(b1-4)]Man(a1-3)[GlcNAc(b1-4)][GlcNAc(b1-2)[GlcNAc(b1-6)]Man(a1-6)]Man(b1-4)GlcNAc(b1-4)GlcNAc
# Procedure, shortened: as §1
# [32] = target: GlcNAc(b1-2)[GlcNAc(b1-4)]Man(a1-3)[GlcNAc(b1-4)][GlcNAc(b1-2)[GlcNAc(b1-6)]Man(a1-6)]Man(b1-4)GlcNAc(b1-4)[Fuc(a1-6)]GlcNAc
# Procedure, shortened: as §1
# [33] = target: GlcNAc(b1-2)[GlcNAc(b1-6)]Man(a1-6)[GlcNAc(b1-2)Man(a1-3)]Man(b1-4)GlcNAc(b1-4)GlcNAc
# Procedure, shortened: as §1
# [34] = target: GlcNAc(b1-2)[GlcNAc(b1-6)]Man(a1-6)[GlcNAc(b1-2)Man(a1-3)]Man(b1-4)GlcNAc(b1-4)[Fuc(a1-6)]GlcNAc
# Procedure, shortened: as §1
# [35] = target: GlcNAc(b1-2)[GlcNAc(b1-6)]Man(a1-6)[GlcNAc(b1-4)][GlcNAc(b1-2)Man(a1-3)]Man(b1-4)GlcNAc(b1-4)GlcNAc
# Procedure, shortened: as §1
# [36] = target: GlcNAc(b1-3)Fuc
# Procedure, shortened: as §1
# [37] = target: GlcNAc(b1-3)Gal
# Procedure, shortened: as §1
# [38] = target: GlcNAc(b1-3)Gal(b1-3)GalNAc
# Procedure, shortened: as §1
binder,measurement,setting,value
"ECL (Erythrina cristagalli), Q6YD91 (protein) VETISFSFSEFEPGNNDLTLQGAAIITQSGVLQLTKINQNGMPAWDSTGRTLYTKPVHIWDMTTGTVASFETRFSFSIEQPYTRPLPADGLVFFMGPTKSKPAQGYGYLGVFNNSKQDNSYQTLAVEFDTFSNPWDPPQVPHIGIDVNSIRSIKTQPFQLDNGQVANVVIKYDASSKILLAVLVYPSSGAIYTIAEIVDVKQVLPEWVDVGLSGATGAQRDAAETHDVYSWSFHASLPETND",glycan array binding signal (z-score),[1],-0.275
same,glycan array binding signal (z-score),[2],-0.57
same,glycan array binding signal (z-score),[3],-0.442
same,glycan array binding signal (z-score),[4],-0.188
same,glycan array binding signal (z-score),[5],-0.257
same,glycan array binding signal (z-score),[6],-0.235
same,glycan array binding signal (z-score),[7],-0.195
same,glycan array binding signal (z-score),[8],-0.25
same,glycan array binding signal (z-score),[9],-0.304
same,glycan array binding signal (z-score),[10],-0.37
same,glycan array binding signal (z-score),[11],-0.235
same,glycan array binding signal (z-score),[12],-0.139
same,glycan array binding signal (z-score),[13],-0.385
same,glycan array binding signal (z-score),[14],-0.219
same,glycan array binding signal (z-score),[15],-0.366
same,glycan array binding signal (z-score),[16],-0.381
same,glycan array binding signal (z-score),[17],-0.069
same,glycan array binding signal (z-score),[18],-0.282
same,glycan array binding signal (z-score),[19],-0.357
same,glycan array binding signal (z-score),[20],-0.028
same,glycan array binding signal (z-score),[21],-0.013
same,glycan array binding signal (z-score),[22],0.089
same,glycan array binding signal (z-score),[23],-0.358
same,glycan array binding signal (z-score),[24],-0.238
same,glycan array binding signal (z-score),[25],-0.327
same,glycan array binding signal (z-score),[26],-0.131
same,glycan array binding signal (z-score),[27],-0.432
same,glycan array binding signal (z-score),[28],-0.165
same,glycan array binding signal (z-score),[29],-0.158
same,glycan array binding signal (z-score),[30],-0.235
same,glycan array binding signal (z-score),[31],-0.239
same,glycan array binding signal (z-score),[32],-0.602
same,glycan array binding signal (z-score),[33],-0.379
same,glycan array binding signal (z-score),[34],-0.15
same,glycan array binding signal (z-score),[35],-0.424
same,glycan array binding signal (z-score),[36],-0.462
same,glycan array binding signal (z-score),[37],-0.286
same,glycan array binding signal (z-score),[38],-0.23
